Broadly, the Kd is the free concentration of one partner at which half of the binding sites on the other are occupied at equilibrium, for simple one-to-one binding.

This note sets out measurements from patent US20250388696A1 (NAVIGO PROTEINS, published 2025).

For assay [1], the target named is T1, hFAP-Fc (human, UniProt Q12884 26-760, limits assumed).
T1 construct: also called Fc-tagged target (FAP)
T1 sequence (looked up): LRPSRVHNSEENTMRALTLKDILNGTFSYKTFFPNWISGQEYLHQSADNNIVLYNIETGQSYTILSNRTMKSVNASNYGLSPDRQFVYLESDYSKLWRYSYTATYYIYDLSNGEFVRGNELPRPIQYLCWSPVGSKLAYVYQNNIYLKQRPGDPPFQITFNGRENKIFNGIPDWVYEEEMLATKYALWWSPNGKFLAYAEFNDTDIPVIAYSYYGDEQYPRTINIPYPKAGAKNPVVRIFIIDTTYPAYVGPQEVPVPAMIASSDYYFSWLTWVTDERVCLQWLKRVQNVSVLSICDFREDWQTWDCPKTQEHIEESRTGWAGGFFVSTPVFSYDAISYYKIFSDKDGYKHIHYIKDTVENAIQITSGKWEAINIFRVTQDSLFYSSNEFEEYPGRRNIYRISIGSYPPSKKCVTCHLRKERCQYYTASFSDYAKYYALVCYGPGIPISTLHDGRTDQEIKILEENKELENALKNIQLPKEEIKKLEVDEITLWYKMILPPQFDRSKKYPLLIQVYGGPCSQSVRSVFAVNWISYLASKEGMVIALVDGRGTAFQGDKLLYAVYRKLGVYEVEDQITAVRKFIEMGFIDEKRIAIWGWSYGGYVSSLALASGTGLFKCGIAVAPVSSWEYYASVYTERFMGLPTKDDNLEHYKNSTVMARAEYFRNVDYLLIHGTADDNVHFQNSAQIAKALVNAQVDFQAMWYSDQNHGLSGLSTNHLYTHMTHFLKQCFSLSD
The experiment in a line: SPR, Fc-tagged FAP captured on immobilised protein A, pH 7.3, 1:1 Langmuir fit. As to the method:
(§1) Recombinant protein A, HSA, MSA or target (either ED-B or Her2) was immobilized on a High Capacity Amine sensor chip (Bruker) after NHS/EDC activation with a Sierra SPR-32 system (Bruker). The chip was equilibrated with SPR running buffer (PBS 0.05%, Tween pH 7.3). Injection of ethanolamine after target immobilization was used to block free NHS groups. To determine the binding of fusion proteins to FAP, the Fc-tagged target was injected with 60 or 30 nM to Protein A coupled spots followed by the injection of fusion proteins.
(§2) Binding proteins were applied to the chip in serial dilutions with a flow rate of 30 μl/min. Upon binding, analyte accumulated on the surface increasing the refractive index. This change in the refractive index was measured in real time and plotted as response or resonance units versus time. The association was performed for 120 seconds and the dissociation for 180 seconds. After each run, the chip surface was regenerated with 30 μl regeneration buffer (10 mM glycine pH 2.0 or pH 1.5) and equilibrated with running buffer. Binding studies were carried out using the Sierra SPR-32 system (Bruker); data evaluation was operated via the Sierra Analyser software, provided by the manufacturer, by the use of the Langmuir 1:1 model (RI=0).
(SPR reads the build-up and loss of mass on a sensor chip optically.)

In assay [2] the target is T2, human serum albumin (human, UniProt P02768 25-609).
T2 construct: also called HSA
The experiment in a line: SPR, HSA immobilised on the chip, pH 7.3, 1:1 Langmuir fit. As to the method:
as §1, §2

The target in another assay is T3, mouse serum albumin (mouse, UniProt P07724 25-608).
T3 construct: also called MSA
As to the kind of experiment: SPR.

Assay [3] deals with T1, hFAP-Fc. As to the kind of experiment: SPR.
Assay [4] concerns the target T2, human serum albumin. The experiment in a line: SPR, HSA immobilised on the chip, pH 7.3, 1:1 Langmuir fit [continued]. As to the method: as §1, §2

T2 sequence (P02768 25-609 limits assumed): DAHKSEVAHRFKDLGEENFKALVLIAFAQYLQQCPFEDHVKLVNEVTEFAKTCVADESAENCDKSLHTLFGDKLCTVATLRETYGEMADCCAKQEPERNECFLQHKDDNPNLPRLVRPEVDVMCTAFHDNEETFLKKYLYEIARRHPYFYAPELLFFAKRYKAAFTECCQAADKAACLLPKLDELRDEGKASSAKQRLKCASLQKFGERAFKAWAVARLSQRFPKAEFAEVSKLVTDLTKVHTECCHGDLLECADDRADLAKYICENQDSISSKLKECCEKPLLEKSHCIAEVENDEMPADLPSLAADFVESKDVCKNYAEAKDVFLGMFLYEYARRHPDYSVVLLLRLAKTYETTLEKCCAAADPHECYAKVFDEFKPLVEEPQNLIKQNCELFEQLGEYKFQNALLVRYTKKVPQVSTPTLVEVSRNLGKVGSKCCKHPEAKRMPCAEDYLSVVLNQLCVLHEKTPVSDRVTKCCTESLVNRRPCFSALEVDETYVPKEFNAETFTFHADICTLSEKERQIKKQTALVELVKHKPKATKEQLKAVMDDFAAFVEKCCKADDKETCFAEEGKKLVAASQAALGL

B1: fusion protein of SEQ ID NO: 47 (designed binder)
chain: MQIFVKTLTPEWHIIGKTITLEVEPSDTIENVKAKIQDKEGIPPDQQNLAWAGKQLEDGRTLSDYNIQGGSMLMLKLHLRAAGGGGSGGGGSMQIFVKTLTPEWHIIGKTITLEVEPSDTIENVKAKIQDKEGIPPDQQNLAWAGKQLEDGRTLSDYNIQGGSMLMLKLHLRAAGGGGSGGGGSLAEAKVLALKELDKYGISNYYKNLINNAKTVEGVKALKEAIVAAGGGGSGGGGSLAEAKVLALKELDKYGISNYYKNLINNAKTVEGVKALKEAIVAAC
notes: also called 220521
Take B1: the dissociation constant Kd came out at 0.5 nM with hFAP-Fc [1] and 1.5 nM with human serum albumin [2].

B2: fusion protein 220521 DOTA In (designed binder)
chain: MQIFVKTLTPEWHIIGKTITLEVEPSDTIENVKAKIQDKEGIPPDQQNLAWAGKQLEDGRTLSDYNIQGGSMLMLKLHLRAAGGGGSGGGGSMQIFVKTLTPEWHIIGKTITLEVEPSDTIENVKAKIQDKEGIPPDQQNLAWAGKQLEDGRTLSDYNIQGGSMLMLKLHLRAAGGGGSGGGGSLAEAKVLALKELDKYGISNYYKNLINNAKTVEGVKALKEAIVAAGGGGSGGGGSLAEAKVLALKELDKYGISNYYKNLINNAKTVEGVKALKEAIVAAC
modifications: Maleimide-DOTA coupled (site not stated), loaded with In
On to B2, for which the Kd with mouse serum albumin was 0.9 nM; in the assay with hFAP-Fc [3], below 0.5 nM.

B3: fusion protein 220521 DOTA Lu (designed binder)
chain: MQIFVKTLTPEWHIIGKTITLEVEPSDTIENVKAKIQDKEGIPPDQQNLAWAGKQLEDGRTLSDYNIQGGSMLMLKLHLRAAGGGGSGGGGSMQIFVKTLTPEWHIIGKTITLEVEPSDTIENVKAKIQDKEGIPPDQQNLAWAGKQLEDGRTLSDYNIQGGSMLMLKLHLRAAGGGGSGGGGSLAEAKVLALKELDKYGISNYYKNLINNAKTVEGVKALKEAIVAAGGGGSGGGGSLAEAKVLALKELDKYGISNYYKNLINNAKTVEGVKALKEAIVAAC
modifications: Maleimide-DOTA coupled (site not stated), loaded with Lu
In the case of B3, the Kd in the assay with mouse serum albumin is 0.9 nM; with hFAP-Fc [3], below 0.5 nM.

B4: 218689 (designed binder)
fusion protein: MQIFVWTRINKLITLEVEPSDTIENVKAKIQDKEGIPPDQQSLYWKGKQLEDGRTLSDYNINIWPNLYLSLRAALAEAKVLALKELDKYGISNYYKNLINNAKTVEGVKALKEAIVAALAEAKVLALKELDKYGISNYYKNLINNAKTVEGVKALKEAIVAA
notes: order of parts as in the construct name; also called 217832_d01_d01
Consider B4, for which the Kd with hFAP-Fc [1] was determined as 3.9 nM; in the assay with human serum albumin [2], 1.1 nM.

B5: fusion protein 218462 DOTA In (designed binder)
chain: MQIFVKTLTGKTITLEVEPSDTTENVKAKIQDKEGIPPDQQTLAFVGKQLEDGRTLSDYNIQKESTLWLYLTLRAAMRIFVKTHTGKTITLDVEPSDTIENVKAKIQDKEGIPPDQQRLIWAGKQLEDGRTLSDYNIQEWAILHLVLRLRAAGGGGSGGGGSGGGGSGGGGSLAEAKVLALKELDKYGISNYYKNLINNAKTIEGVKALKDEIVAA
modifications: Maleimide-DOTA coupled (site not stated), loaded with In
notes: also called 206479_(G4S)4_c20
As to B5, the Kd with mouse serum albumin was 82 nM.

B6: fusion protein 218462 DOTA Lu (designed binder)
chain: MQIFVKTLTGKTITLEVEPSDTTENVKAKIQDKEGIPPDQQTLAFVGKQLEDGRTLSDYNIQKESTLWLYLTLRAAMRIFVKTHTGKTITLDVEPSDTIENVKAKIQDKEGIPPDQQRLIWAGKQLEDGRTLSDYNIQEWAILHLVLRLRAAGGGGSGGGGSGGGGSGGGGSLAEAKVLALKELDKYGISNYYKNLINNAKTIEGVKALKDEIVAA
modifications: Maleimide-DOTA coupled (site not stated), loaded with Lu
notes: also called 206479_(G4S)4_c20
The molecule B6 had a Kd with mouse serum albumin of 108 nM.

B7: 220520 (designed binder)
fusion protein: MQIFVKTLTPEWHIIGKTITLEVEPSDTIENVKAKIQDKEGIPPDQQNLAWAGKQLEDGRTLSDYNIQGGSMLMLKLHLRAAGGGGSGGGGSLAEAKVLALKELDKYGISNYYKNLINNAKTVEGVKALKEAIVAAGGGGSGGGGSLAEAKVLALKELDKYGISNYYKNLINNAKTVEGVKALKEAIVAA
notes: also called 217990__d01__d01
Regarding B7, the Kd with hFAP-Fc [1] was 7.8 nM; in the assay with human serum albumin [2], 1.7 nM.

B8: fusion protein 220520 DOTA Lu (designed binder)
chain: MQIFVKTLTPEWHIIGKTITLEVEPSDTIENVKAKIQDKEGIPPDQQNLAWAGKQLEDGRTLSDYNIQGGSMLMLKLHLRAAGGGGSGGGGSLAEAKVLALKELDKYGISNYYKNLINNAKTVEGVKALKEAIVAAGGGGSGGGGSLAEAKVLALKELDKYGISNYYKNLINNAKTVEGVKALKEAIVAA
modifications: Maleimide-DOTA coupled (site not stated), loaded with Lu
Take B8: the Kd with mouse serum albumin was below 1 nM; in the assay with hFAP-Fc [3], 5.9 nM.

B9: fusion protein of SEQ ID NO: 54 (designed binder)
chain: MQIFVKTLTPEWHIIGKTITLEVEPSDTIENVKAKIQDKEGIPPDQQNLAWAGKQLEDGRTLSDYNIQGGSMLMLKLHLRAAGGGGSGGGGSMQIFVKTLTPEWHIIGKTITLEVEPSDTIENVKAKIQDKEGIPPDQQNLAWAGKQLEDGRTLSDYNIQGGSMLMLKLHLRAAGGGGSGGGGSLAEAKVLALKELDKYGISNYYKNLINNAKTVEGVKALKEAIVAAC
notes: also called 220519
As for B9, the figures for the Kd with hFAP-Fc [1] and with human serum albumin [2] were 0.5 nM and 9.7 nM, respectively.

B10: fusion protein 220519 DOTA Lu (designed binder)
chain: MQIFVKTLTPEWHIIGKTITLEVEPSDTIENVKAKIQDKEGIPPDQQNLAWAGKQLEDGRTLSDYNIQGGSMLMLKLHLRAAGGGGSGGGGSMQIFVKTLTPEWHIIGKTITLEVEPSDTIENVKAKIQDKEGIPPDQQNLAWAGKQLEDGRTLSDYNIQGGSMLMLKLHLRAAGGGGSGGGGSLAEAKVLALKELDKYGISNYYKNLINNAKTVEGVKALKEAIVAAC
modifications: Maleimide-DOTA coupled (site not stated), loaded with Lu
B10: the Kd with mouse serum albumin is 67 nM; in the assay with hFAP-Fc [3], below 1 nM.

B11: 220518 (designed binder)
fusion protein: MQIFVKTLTPEWHIIGKTITLEVEPSDTIENVKAKIQDKEGIPPDQQNLAWAGKQLEDGRTLSDYNIQGGSMLMLKLHLRAAGGGGSGGGGSLAEAKVLALKELDKYGISNYYKNLINNAKTVEGVKALKEAIVAA
notes: also called 217990_d01
Regarding B11, the Kd with hFAP-Fc [1] stood at 3.7 nM; with human serum albumin [2], 3.9 nM.

B12: fusion protein 220518 DOTA Lu (designed binder)
chain: MQIFVKTLTPEWHIIGKTITLEVEPSDTIENVKAKIQDKEGIPPDQQNLAWAGKQLEDGRTLSDYNIQGGSMLMLKLHLRAAGGGGSGGGGSLAEAKVLALKELDKYGISNYYKNLINNAKTVEGVKALKEAIVAA
modifications: Maleimide-DOTA coupled (site not stated), loaded with Lu
In the case of B12, the results for the Kd with mouse serum albumin and with hFAP-Fc [3] were 38 nM and 6 nM, respectively.

B13: 220909 (designed binder)
fusion protein: MQIFVKTLTGKTITLEVEPSDTTENVKAKIQDKEGIPPDQQTLAFVGKQLEDGRTLSDYNIQKESTLWLYLTLRAAMRIFVKTHTGKTITLDVEPSDTIENVKAKIQDKEGIPPDQQRLIWAGKQLEDGRTLSDYNIQEWAILHLVLRLRAALAEAKVLALKELDKYGISNYYKNLINNAKTIEGVEGLKDAILAA
notes: order of parts as in the construct name; also called 206479_c47
Consider B13, for which the Kd in the assay with human serum albumin [4] was found to be 20.8 nM.

B14: 221980 (designed binder)
fusion protein: MQIFVKTLTGKTITLEVEPSDTTENVKAKIQDKEGIPPDQQTLAFVGKQLEDGRTLSDYNIQKESTLWLYLTLRAAMRIFVKTHTGKTITLDVEPSDTIENVKAKIQDKEGIPPDQQRLIWAGKQLEDGRTLSDYNIQEWAILHLVLRLRAALAEAKVLALKELDKYGISNYYKNLIDKAKTIEGVEALKDAILAA
notes: order of parts as in the construct name; also called 206479_c29
On to B14, for which, in the assay with human serum albumin [4], the Kd came to 1.5 nM.

B15: 220883 (designed binder)
fusion protein: MQIFVKTLTGKTITLEVEPSDTTENVKAKIQDKEGIPPDQQTLAFVGKQLEDGRTLSDYNIQKESTLWLYLTLRAAMRIFVKTHTGKTITLDVEPSDTIENVKAKIQDKEGIPPDQQRLIWAGKQLEDGRTLSDYNIQEWAILHLVLRLRAALAEAKVLALKELDKYGISNYYKNLINRAKTIEGVKALKDEIVAA
notes: order of parts as in the construct name; also called 206479_c44
As to B15, the Kd in the assay with human serum albumin [4] stood at 2.8 nM.

B16: 220902 (designed binder)
fusion protein: MQIFVKTLTGKTITLEVEPSDTTENVKAKIQDKEGIPPDQQTLAFVGKQLEDGRTLSDYNIQKESTLWLYLTLRAAMRIFVKTHTGKTITLDVEPSDTIENVKAKIQDKEGIPPDQQRLIWAGKQLEDGRTLSDYNIQEWAILHLVLRLRAALAEAKVLAIKELDKAGISNYYFNLINNAKTVEGVKALKAQIVAR
notes: order of parts as in the construct name; also called 206479_a34
As to B16, binding with human serum albumin [2] was put at a Kd of 17.6 nM.

B17: 221873 (designed binder)
fusion protein: MQIFVKTLTGKTITLEVEPSDTTENVKAKIQDKEGIPPDQQTLAFVGKQLEDGRTLSDYNIQKESTLWLYLTLRAAMRIFVKTHTGKTITLDVEPSDTIENVKAKIQDKEGIPPDQQRLIWAGKQLEDGRTLSDYNIQEWAILHLVLRLRAALAEAKVLAIKELDKAGISDYYFNLINNAKTIEGVKALKAQIVAA
notes: order of parts as in the construct name; also called 206479_a05
B17 showed a Kd with human serum albumin [2] of 2.9 nM.
